Results on 39 compounds are retold here after the supplement of paper PMC2702839.

Structures can show the parent of a compound that is named as a salt. This is one part of the list.

The assay has as its system Schistosoma mansoni schistosomula. The experiment in a line: phenotypic hit in primary schistosomula screen (any phenotype vs DMSO control) (binary (1 = hit, 0 = no phenotype)); higher = active (phenotype induced). Particulars: 1 µM; time (d): 7.
As for `COc1cc2c(cc1OC)[C@@H]1C(=O)c3ccc(O)c(CC=C(C)C)c3O[C@@H]1CO2` [rotenonic acid], the phenotypic hit is inactive: 0.

Turning to `C[C@@H]1O[C@@H](O[C@H]2C[C@@H](O)[C@]3(CO)[C@H]4[C@H](O)C[C@]5(C)[C@@H](C6=CC(=O)OC6)CC[C@]5(O)[C@@H]4CC[C@]3(O)C2)[C@H](O)[C@H](O)[C@H]1O` [ouabain], the phenotypic hit was inactive: 0.

For `COc1ccc2c3c([nH]c2c1)C(C)=NCC3` [harmaline], the phenotypic hit was inactive: 0.

In the case of `CC1(C)C2C[C@@H](O)[C@]3(C)C(CC[C@@]4(C)[C@H](c5ccoc5)OC(=O)[C@H]5O[C@]543)[C@@]2(C)[C@@H](O)C[C@H]1O` (some centres undefined) [tridesacetoxykhivorin], the phenotypic hit is inactive: 0.

Turning to `[N-]=[N+]=CC(=O)OC[C@H](N)C(=O)O` [azaserine], the phenotypic hit is inactive: 0.

In the case of `NCC(O)c1ccc(O)cc1` (racemic) [(±)-Octopamine hydrochloride], the phenotypic hit was inactive: 0.

In the case of `C=C1[C@@H](C)[C@H]2[C@H](Cc3ccccc3)NC(=O)[C@]23OC(=O)/C=C/[C@H](O)CCC[C@@H](C)C/C=C/[C@H]3[C@@H]1O` [cytochalasin b], the phenotypic hit is inactive: 0.

As to `ClC1=C(Cl)C2(Cl)C3C4C=CC(C4)C3C1(Cl)C2(Cl)Cl` (centres undefined) [aldrin], the phenotypic hit was inactive: 0.

As for `COC(=O)COc1cc(Cl)c(Cl)cc1Cl` [2,4,5-trichlorophenoxyacetic acid, methyl ester], the phenotypic hit is inactive: 0.

For the compound `C[C@]12CCC3C(CC[C@H]4C[C@H](O)CC[C@]34C)C1CC[C@@H]2O` (some centres undefined) [epiandrostanediol], the phenotypic hit is inactive: 0.

`C[C@@H](CO)NC(=O)[C@@H]1C=C2c3cccc4[nH]cc(c34)C[C@H]2N(C)C1` [ergonovine maleate]: the phenotypic hit was active: 1.

Consider `Clc1ccc(C(OCCN2CCCCC2)c2ccccc2)cc1` (centres undefined) [cloperastine hydrochloride], for which the phenotypic hit was inactive: 0.

Consider `CCCSP(=O)(OCC)SCCC` [ethoprop], for which the phenotypic hit is inactive: 0.

For the compound `NCCc1c[nH]c2ccccc12` [Tryptamine hydrochloride], the phenotypic hit was inactive: 0.

Take `C[C@]12CC[C@H](O)C[C@H]1CC[C@@H]1[C@@H]2C[C@@H](O)[C@]2(C)[C@@H](C3=CC(=O)OC3)CC[C@]12O` [digoxigenin]: the phenotypic hit was inactive: 0.

Regarding `Cc1cccc(C)c1NC1=NCCCS1` [Xylazine hydrochloride], the phenotypic hit is active: 1.

Turning to `C[C@]12CC[C@H](Cl)C[C@@H]1CC[C@@H]1[C@@H]2CC[C@]2(C)C(=O)CC[C@@H]12` [3beta-chloroandrostanone], the phenotypic hit is inactive: 0.

As for `C[C@]12CCC(=O)C=C1CCc1ccc(O)cc12` [12-hydroxy-4,4-bisnor-4,8,11,13-podocarpatetraen-3-one], the phenotypic hit is inactive: 0.

With `C=C1[C@@H]2CCC3[C@@](CC[C@@H]4[C@H](C(=O)O)C[C@@H](O[C@@H]5O[C@H](CO)[C@@H](OS(=O)(=O)O)[C@H](OS(=O)(=O)O)[C@H]5OC(=O)CC(C)C)C[C@@]34C)(C2)[C@@H]1O` (some centres undefined) [atractyloside potassium], the phenotypic hit is inactive: 0.

Regarding `CC(=O)OCC1=C(C(=O)O)N2C(=O)[C@@H](NC(=O)CCC[C@@H](N)C(=O)O)[C@H]2SC1` [cephalosporin c sodium], the phenotypic hit was inactive: 0.

In the case of `COc1c2c(cc3c1OCO3)CC[N+](C)=C2` [cotarnine chloride], the phenotypic hit is inactive: 0.

With `Cn1c(=O)c2c(ncn2CCCl)n(C)c1=O` [7-(beta-Chloroethyl)theophylline], the phenotypic hit is inactive: 0.

Turning to `CNC(=O)Oc1cccc2c1OC(C)(C)O2` [bendiocarb], the phenotypic hit was inactive: 0.

On to `CC(=O)OC1CCC23C(=O)OC45CCC(C6=CC(=O)OC6)C4(C)CCC2C5CCC3(O)C1` (centres undefined) [strophanthidinic acid lactone acetate], for which the phenotypic hit is inactive: 0.

On to `CCCCN(CC)c1c([N+](=O)[O-])cc(C(F)(F)F)cc1[N+](=O)[O-]` [benfluralin], for which the phenotypic hit was inactive: 0.

With `NC(=O)CN1CCCC1=O` [piracetam], the phenotypic hit was inactive: 0.

With `CC1(C)C(O)CC(O)C2(C)C1CC(O)C1(C)C2CCC2(C)C(c3ccoc3)CC3OC321` (centres undefined) [havanensin], the phenotypic hit was inactive: 0.

For `CC(=O)Oc1ccc(Cl)c2cccnc12` [chloroacetoxyquinoline], the phenotypic hit was inactive: 0.

Turning to `C=C(C)[C@@H]1[C@H]2OC(=O)[C@@H]1[C@]1(O)C[C@H]3O[C@]34C(=O)O[C@H]2[C@]14C` [picrotoxinin], the phenotypic hit is inactive: 0.

As to `Oc1ccc(Cl)cc1` [parachlorophenol], the phenotypic hit is inactive: 0.

For the compound `CC1C[C@H]2CC(=O)[C@H]3CCCN4CCC[C@H]2[C@]34C1.[O-][Cl+3]([O-])([O-])O` (some centres undefined) [lycopodine perchlorate], the phenotypic hit is inactive: 0.

Consider `COc1cc([C@@H]2c3cc4c(c(O)c3C[C@H]3COC(=O)[C@@H]32)OCO4)cc(OC)c1OC` [beta-peltatin], for which the phenotypic hit is inactive: 0.

For the compound `CC(=O)c1c(O)c(C)c(O)c2c1oc1c(C(C)=O)c(O)c(C)c(O)c12` [diacetyldideisovaleryl-rhodomyrtoxin], the phenotypic hit is inactive: 0.

Regarding `C[C@]12CC[C@H](O)C[C@H]1CC[C@@H]1[C@@H]2[C@H](O)C[C@]2(C)[C@@H](C3=CC(=O)OC3)CC[C@]12O` [sarmentogenin], the phenotypic hit is inactive: 0.

In the case of `COc1cc2c(cc1OC)[C@@H]1C(=O)c3ccc4oc(C(C)C)cc4c3O[C@@H]1CO2` [isorotenone], the phenotypic hit was active: 1.

On to `C[N+]12CCC(CC1)C(OC(=O)C(O)(c1ccccc1)c1ccccc1)C2` (centres undefined) [clidinium bromide], for which the phenotypic hit is inactive: 0.

Turning to `COC[C@]12CN(C=O)[C@@H]3[C@@H]4[C@H](OC)[C@H]1[C@@]3([C@@H](OC)C[C@H]2O)[C@@H]1C[C@@]2(O)[C@H](OC(=O)c3ccccc3)[C@@H]1[C@]4(OC(C)=O)[C@@H](O)[C@@H]2OC` [oxonitine], the phenotypic hit was inactive: 0.

Consider `CC(C)=CCCC1(C)C=Cc2c(O)c3c(c(CC=C(C)C)c2O1)OC12C(=CC4CC1C(C)(C)OC2(C/C=C(/C)C(=O)O)C4O)C3=O` (centres undefined) [dihydrogambogic acid], for which the phenotypic hit was active: 1.

For the compound `C[C@H]1C(=O)O[C@@H]2CCN3CC=C(COC(=O)[C@](C)(O)[C@]1(C)O)[C@H]23` [monocrotaline], the phenotypic hit was inactive: 0.
